Measurements from article PMC12040169 (PLOS Biology, 2025).
The other results are listed elsewhere or left out.

Tested on: T1, C. trachomatis L2/434/Bu expressing GFP (CTL2-GFP)
T1 construct: L2/434/Bu GFP intracellular growth in HeLa cells
Parameters: species or system HeLa; C. trachomatis total inclusion area by high-content imaging, normalised to DMSO
Settings: total inclusion area; 28.5 h, 10 µM; inhibitor
In short: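 High-content imaging followed the bulk GFP/resorufin measurement: fixed, Hoechst-stained cells were scored for GFP inclusions and host nuclei per well. Total inclusion area and count served as growth proxies, nuclei number as the viability proxy. MIC calculation matched the bulk assay.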

Structure (SMILES) | % of control remaining
O=C(O)c1ccc(-c2ccc(/C=C/c3[nH]c(=O)[nH]c(=O)c3[N+](=O)[O-])o2)cc1 [CBK268055] | 100.862
CC(=O)Nc1cccc(C(=O)OCC(=O)c2cccs2)c1 [CBK306040] | 50.0936
CNC(=O)C1(Cc2ccc(-c3ccccc3)cc2)CCN(C(=O)c2ccccc2)CC1 [CBK285761] | 90.081
CCCc1cc(C(=O)N(C)CCOc2ccccc2)[nH]n1 [CBK283162] | 117.793
Cc1ccc(C(N)=O)c(OCC(=O)N2c3ccccc3CCC2C)c1 (centres unmarked) [CBK295633] | 107.403
COc1ccccc1Nc1nc(N)nc(CSCCO)n1 [CBK266679] | 115.27
Cc1cc(Br)c(NCC(=O)N/N=C/c2ccc(O)cc2)c(Br)c1 [CBK263506] | 71.0616
COc1ccc(-c2n[nH]c(=S)n2CC(=O)Nc2nc(-c3ccc(C)cc3C)cs2)cc1 [CBK295316] | 90.491
O=C(C1CC1)N1C2CCC1Cn1c(nc3ccccc3c1=O)C2 (centres unmarked) [CBK284451] | 99.239
CNC(=O)C1(Cc2ccccc2-c2cccs2)CCN(C(=O)c2ccccc2OC)CC1 [CBK285685] | 97.4743
Cc1nc2c(c(=O)[nH]1)CN(Cc1ccc(Cl)c(Cl)c1)CC2 [CBK283949] | 89.6919
Cc1cc(NC(=O)c2cncnc2)c2ccccc2n1 [CBK122734] | 60.7275
CCCc1c(O)n[nH]c1Cc1ccc(Cl)cc1 [CBK078564] | 94.6996
CCN(C(=O)c1cnc2n(c1=O)CCS2)c1ccccc1 [CBK287384] | 76.3436
COC[C@@H]1CCCN1S(=O)(=O)c1cccs1 [CBK045239] | 79.151
CCCC/C=C/c1cn2ccnc2c(Nc2ccc(OC)nc2)n1 [CBK038089] | 97.2841
Cc1nn(-c2ccccc2)c2sncc12 [CBK006869] | 78.349
OCC1CCN(Cc2cnn(C3CCCCC3)c2)C1 (centres unmarked) [CBK283086] | 82.3527
O=C(Cn1ccc2ccnc(-c3cccs3)c21)N1CCNCC1 [CBK284733] | 106.381
Cc1nc2c(C(=O)NCCOCCO)cnn2c(C)c1Cc1ccc(F)c(Cl)c1 [CBK167457] | 61.9575
Cn1cc(C(=O)N2CCCC3(C/C=C/COc4ccccc4C(=O)NCCNC3=O)C2)cn1 (centres unmarked) [CBK292102] | 120.673

Structure (SMILES) | % of control remaining
COc1ccc(N2CCN(/C(=N\S(=O)(=O)c3ccc(C)cc3)Nc3nc(C)cc(C)n3)CC2)cc1 [CBK266564] | 114.795
Cn1nc(C2CC2)cc1C(=O)NCCN1CCc2ccccc21 [CBK282138] | 76.6187
Cc1nc(=O)c(-c2ccccc2)c(C)n1CCCCCC(=O)O [CBK287060] | 81.81
O=C(Cn1cccc(C(=O)NC2CCCCC2)c1=O)NCC1(c2ccccc2Cl)CC1 [CBK286054] | 91.2602
Cc1cc(C)nc(NS(=O)(=O)c2ccc(OC(F)(F)F)cc2)c1 [CBK044711] | 119.42
Cc1ccc(NC(=O)c2ccccc2)s1 [CBK086724] | 92.4153
O=C(c1cccc(C(=O)N(Cc2ccccc2)c2ccccn2)c1)N(Cc1ccccc1)c1ccccn1 [CBK091794] | 112.689
c1ccc(Nc2cncc(N3CCNCC3)n2)cc1 [CBK013389] | 81.2693
CCC(CC)C(=O)Nc1nc(OC)cnc1-c1ccc(OCOC)cc1 [CBK145207] | 104.494
O=C(O)/C=C\C(=O)Nc1cccc(NC(=O)c2cccs2)c1 [CBK263952] | 103.755
O=C(Nc1ccc(Cc2ccncc2)cc1)c1cc([N+](=O)[O-])n[nH]1 [CBK269157] | 89.569
CCn1c2cc(C)oc2c2cnn(CC(=O)N(C)C)c(=O)c21 [CBK284224] | 84.4029
Cc1nc(-c2ccccc2)sc1CNC(=O)C(C)c1ccc([N+](=O)[O-])cc1 (centres unmarked) [CBK092364] | 28.1232
Cn1cccc1CN1C[C@H]2CC[C@]3(NC(=O)c4ccccc4N3)[C@H]2C1 [CBK284443] | 100.449
CCC(=O)NCc1ccc(-c2nc3ncccc3o2)cc1 [CBK270220] | 74.9896
COc1ccc2c(c1)Cc1sc(NC(C)=O)nc1-2 [CBK287876] | 98.0006
Cc1nc(-c2cc(Cl)c(Cl)s2)cs1 [CBK009801] | 67.9978
CCCC(SCC)C(N)=O (centres unmarked) [CBK020895] | 66.105
CCC(CO)Nc1cncc(-c2cccc(C(F)(F)F)c2)n1 (centres unmarked) [CBK065783] | 72.7937
Cc1c(Cl)c(C(=O)N[C@@H]2CCN(Cc3ccccn3)C[C@H]2O)nn1C [CBK306676] | 61.6755
